Reference: PubChem BioAssay AID360 (National Center for Advancing Translational Sciences (NCATS), 2006)
Hit rate of the full screen: of about 48,000 compounds, about 550 (1.1%) were called active. Another 4% or so got no clear call; they are omitted. Rule as the data show it: active = potency below about 15 µM; inconclusive = mostly about 16 µM to 33 µM; inactive = weaker than that. The list shows a part of the results.

Each compound was assayed against Lysosomal acid glucosylceramidase (Homo sapiens) (UniProt P04062) (assay: Glucocerebrosidase). Details: purified enzyme, resorufin glucoside fluorescence (screen aimed at inhibitors), 20 min.
Summary of the method: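 Wild-type enzyme at 0.2 nM final in 50mM citric acid/KH2PO4, 10mM sodium taurocholate, 0.01% tween-20, pH 5.9, with resorufin beta-D-glucopyranoside at 30 uM final. Compounds titrated, 20 min at RT, red fluorescence read; AC50 from titration.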
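Also: the screen sought inhibitors.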
Potency is read from the fitted curve at half-maximal effect.

Chain of UniProt P04062 (P04062 whole entry, looked up): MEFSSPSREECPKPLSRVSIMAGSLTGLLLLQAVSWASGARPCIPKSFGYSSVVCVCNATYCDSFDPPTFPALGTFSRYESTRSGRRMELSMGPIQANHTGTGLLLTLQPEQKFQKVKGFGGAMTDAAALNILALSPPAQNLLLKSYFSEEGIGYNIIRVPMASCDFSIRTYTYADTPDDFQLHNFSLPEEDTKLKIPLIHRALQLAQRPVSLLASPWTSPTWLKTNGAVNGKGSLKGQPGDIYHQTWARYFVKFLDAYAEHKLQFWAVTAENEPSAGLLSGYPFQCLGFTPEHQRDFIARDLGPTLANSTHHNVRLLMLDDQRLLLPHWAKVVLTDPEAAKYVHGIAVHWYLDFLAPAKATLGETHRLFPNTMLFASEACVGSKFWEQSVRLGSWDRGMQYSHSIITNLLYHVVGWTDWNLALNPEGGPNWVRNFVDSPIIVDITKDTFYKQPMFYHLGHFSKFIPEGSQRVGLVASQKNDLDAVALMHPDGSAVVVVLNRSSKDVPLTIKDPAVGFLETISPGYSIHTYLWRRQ

Potency, inactive:
OC(c1ccc(Cl)cc1)c1nnc(-c2ccccc2)o1 (configuration not stated) > 76.9 µM
CN(CC(=O)Nc1nc2ccccc2s1)S(=O)(=O)c1ccccc1 > 76.9 µM
COc1cc(C2C(C#N)=C(N)OC3=C2C(=O)CCC3)ccc1OC(=O)N1CCOCC1 (configuration not stated) > 76.9 µM
O=C(Nc1ccc2c(c1)OCO2)c1c(F)cccc1F > 76.9 µM
CCOC(=O)Nc1ccc(S(=O)(=O)Nc2nccc(C)n2)cc1 > 76.9 µM
N=c1c(S(=O)(=O)c2ccccc2)cc2c(=O)n3ccccc3nc2n1CCN1CCOCC1 > 76.9 µM
COc1ccccc1NC(=O)c1ccc(COc2ccccc2OC)o1 > 76.9 µM
O=C(O)CSC1=NCCN1 > 76.9 µM
COCCCn1c(SCC(=O)Nc2cccc(C)n2)nnc1-c1ccco1 > 76.9 µM
CCCn1c2c(c(O)c(C(=O)Nc3ncccc3O)c1=O)CCCC2 > 76.9 µM
Cc1cccc(-n2nnnc2SCC(=O)c2cc(C)n(CC3CCCO3)c2C)c1 (configuration not stated) > 76.9 µM
COc1cc(NS(=O)(=O)c2ccc(NC(=O)CSC3=NCCS3)cc2)nc(OC)n1 > 76.9 µM
C=CCc1cccc2cc(C(=O)NC)c(=O)oc12 > 76.9 µM
COc1ccc(C(=O)Nc2ccc(-c3ccc(C)o3)cc2)cc1S(=O)(=O)N1CCOCC1 > 76.9 µM
O=C(NCCc1ccc(Cl)cc1)C1CCN(S(=O)(=O)c2cccc3nonc23)CC1 > 76.9 µM
Cc1cc2oc(=O)cc(COC(=O)Cn3cnnn3)c2cc1C(C)C > 76.9 µM
CC(C)N(C(=O)CSc1nnc(CN2CCCCCC2=O)n1-c1ccccn1)C(C)C > 76.9 µM
COc1cccc(-n2c(SCC#N)nnc2-c2cnccn2)c1 > 76.9 µM
Cc1nn(-c2ccccc2)c(N2CCCC2)c1/C=N/n1cnc2scc(-c3ccccc3)c2c1=O > 76.9 µM
O=C(NC1=NCCS1)c1cccs1 > 76.9 µM
O=C(NCCCN1CCCCCC1)c1ccc(CS(=O)(=O)Cc2ccccc2F)o1 > 76.9 µM
c1ccc(OCCCn2nnc(-c3cccnc3)n2)cc1 > 76.9 µM
CCC1CCCCN1CCNC(=O)c1[nH]c(C)c(C(C)=O)c1C (configuration not stated) > 76.9 µM
COc1cc(NS(C)(=O)=O)c(OC)cc1NC(=O)c1ccccc1 > 76.9 µM
Cc1ccc(S(=O)(=O)NCCCN2CCOCC2)cc1C
Cc1nn(-c2ccccc2)c(C)c1C(=O)OCC(=O)c1c(N)n(CC(C)C)c(=O)n(C)c1=O > 76.9 µM
COc1ccc(-c2cc(C(=O)Nc3c(C)nn(Cc4ccc(Cl)cc4)c3C)no2)cc1 > 76.9 µM
O=c1nc(C(F)(F)F)nc2ccccn12 > 76.9 µM
CCOC(=O)CNC(=O)Cn1cnc2c(nnn2-c2ccc(F)cc2)c1=O > 76.9 µM
COc1ccc(CN2CC(C(=O)NCCN3CCN(c4ccccc4F)CC3)CC2=O)cc1 (configuration not stated) > 76.9 µM
COc1cc(NC(=O)c2cccs2)cc(OC)c1 > 76.9 µM
COc1cc(OC)c(C2C(C#N)=C(N)Oc3cc(C)n(CCCN4CCOCC4)c(=O)c32)cc1OC (configuration not stated) > 76.9 µM
N#C/C(C(=O)c1ccccc1)=C1/CCCCCN1 > 76.9 µM
COc1ccc(S(=O)(=O)N2CCOCC2)cc1C(=O)Nc1nc2ccccc2s1 > 76.9 µM
Cc1ccc(S(=O)(=O)N[C@H](C(=O)N2CCC(C(=O)NCC(=O)O)CC2)C(C)C)cc1 > 76.9 µM
CC(=O)Nc1ccc(S(=O)(=O)N2CCN(C3CCCCCCC3)CC2)cc1 > 76.9 µM
O=C(O)c1ccc(OCc2occc2C(=O)O)cc1 > 76.9 µM
CCCCCc1ccc(CC(=O)O)cc1 > 76.9 µM
CCOc1cc(C(=O)Nc2ncccn2)cc(OCC)c1OCC > 76.9 µM
CC(=O)c1ccc(NC(=O)CCc2c(C)nc3ncnn3c2C)cc1 > 76.9 µM
COc1ccc(N(CC(=O)N2CCc3ccccc32)S(=O)(=O)c2c(C)noc2C)cc1 > 76.9 µM
C=CCn1c(SCc2ccc(Cl)cc2)nc2c1c(=O)[nH]c(=O)n2C > 76.9 µM
O=C(Nc1ccccc1N1CCN(c2ccc(F)cc2)CC1)c1ccccc1 > 76.9 µM
COc1ccc(/C(O)=C2/C(=O)C(=O)N(CCCN(C)C)C2c2cccnc2)cc1 (configuration not stated) > 76.9 µM
O=C(COC(=O)c1ccc(S(=O)(=O)N2CCCC2)cc1)NCc1ccccc1 > 76.9 µM
COc1ccc(CCNC(=O)c2cc(-c3cccs3)on2)cc1OC > 76.9 µM
COc1ccc(Cn2c(=O)[nH]c3cc(C(=O)NCCCN4CCCCC4)ccc3c2=O)cc1 > 76.9 µM
CN(c1ccc(O)cc1)c1nc(-c2ccccc2)cs1
CC(C)CNC(=O)c1cccc(C(=O)NCC(C)C)c1 > 76.9 µM
CN1CCN(CC(O)COc2ccc(OCC(O)CN3CCN(C)CC3)cc2)CC1 (configuration not stated) > 76.9 µM
O=C(Nc1ccc(C2CCCCC2)cc1)C1CCN(c2ncccn2)CC1 > 76.9 µM
CCOC(=O)c1cc2c(=O)n3ccccc3nc2n(Cc2ccc(Cl)cc2)c1=N > 76.9 µM
OCCN1CCN(CC(O)COc2ccc3c(c2)OCO3)CC1 (configuration not stated) > 76.9 µM
O=C(Oc1cccnc1)c1ccc(Cl)cc1 > 76.9 µM
Cc1oc(-c2cccc(Cl)c2)nc1CN1CCC(C(=O)NCC2CCCO2)CC1 (configuration not stated) > 76.9 µM
CN1CCOc2cc(S(=O)(=O)Nc3ccc(F)cc3)ccc21 > 76.9 µM
O=C(CSC1=Nc2ccccc2C2=NC(CC(=O)NCc3ccco3)C(=O)N12)NCC1CCCO1 (configuration not stated) > 76.9 µM
